# Measurements published in PubChem BioAssay (NCATS).
# Values joined by “and” are separate entries in the source; they are usually repeats but may differ in a detail not shown here. Identical values can stand only once. The list shows a part of the results. These are further read-outs of the screen, such as a control signal, another cell line or another target. No call is given for them. The note in brackets gives the kind of curve behind each potency; many fits are weak.
# Test: qHTS drug screen for cell cycle checkpoint inhibitors in PARPi-resistant BRCA-mutant ovarian cancer cell lines. (AID 1963452)
# Settings: PEO1/OlaR viability, CellTiter-Glo luminescence, 96 h
# Method in brief: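 PEO1, PEO4 and PEO1/OlaR ovarian cancer cells, 600 per well, exposed 96 h at 37C to a dilution series. Viability read by CellTiter-Glo luminescence, normalized to DMSO and empty wells; activity summarized as Z-AUC.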
# [1] = measured here: PEO1 parental viability
# Tags give direction and shape of the fitted curve.
compound,measurement,setting,value
COc1cc(OC)cc(N2CCN(C(=O)Nc3nc4cc(F)ccc4nc3OC)CC2)c1,AC50,[1],"3.89 µM [falling, full curve]"
same,AC50,measured here: PEO4 viability,"4.36 µM [falling, full curve]"
CN(Cc1ccc(/C=C/C(=O)NO)cc1)CC12CC3CC(CC(C3)C1)C2,AC50,[1],"1.23 µM [falling, full curve]"
same,AC50,measured here: PEO4 viability,"0.616 µM [falling, full curve]"
CCOc1cc(C(C)(C)C)ccc1C1=N[C@@](C)(c2ccc(Cl)cc2)[C@@](C)(c2ccc(Cl)cc2)N1C(=O)N1CCN(CC(=O)N2CCOCC2)CC1,AC50,[1],"17.1 µM [falling, single point]"
same,AC50,measured here: PEO4 viability,"17.1 µM [falling, single point]"
CN[C@H]1CN(c2ccc3c(=O)c(C(=O)O)cn(-c4nccs4)c3n2)C[C@@H]1OC,AC50,[1],"502 nM [falling, full curve] and 1.07 µM [falling, full curve, poor fit]"
same,AC50,measured here: PEO4 viability,"2.83 µM [falling, partial curve, poor fit] and 13.4 µM [falling, single point]"
N#Cc1c(N)nc(N)nc1N[C@H](c1nc2c(F)ccc(Cl)c2c(=O)n1-c1cccnc1)C1CC1,AC50,[1],"9.77 µM [falling, partial curve]"
same,AC50,measured here: PEO4 viability,"8.71 µM [falling, partial curve]"
CC(C)Nc1cc(-c2c[nH]c(C(=O)N[C@H](CO)c3cccc(Cl)c3)c2)c(Cl)cn1,AC50,[1],"1.95 µM [falling, full curve]"
same,AC50,measured here: PEO4 viability,"2.19 µM [falling, full curve]"
FC(F)(F)c1ccc(Nc2nc(-c3c(C(F)(F)F)nc4ccccn34)cs2)cc1,AC50,[1],"0.0219 µM [falling, full curve]"
same,AC50,measured here: PEO4 viability,"0.0245 µM [falling, full curve, poor fit]"
C=CC(=O)N[C@H]1CN(c2nc(Nc3cn(C)nc3OC)c3ncn(C)c3n2)C[C@@H]1F,AC50,[1],"15.5 µM [falling, partial curve]"
same,AC50,measured here: PEO4 viability,"19.5 µM [falling, partial curve]"
COc1cc2c3c(n(CCCNCCO)c(=O)c2cc1OC)-c1cc2c(cc1C3=O)OCO2,AC50,[1],"0.0069 µM [falling, full curve]"
same,AC50,measured here: PEO4 viability,"0.0389 µM [falling, full curve]"
CC(C)(C)NC(=O)c1cncn1C1CCN(c2ccc(-c3nnc(C(F)(F)F)o3)cn2)CC1,AC50,[1],"8.71 µM [falling, partial curve, poor fit]"
same,AC50,measured here: PEO4 viability,"2.19 µM [falling, partial curve]"
Cc1cc(Nc2ncc(Cl)c(Nc3ccccc3S(=O)(=O)C(C)C)n2)c(OC(C)C)cc1C1CCNCC1,AC50,[1],"6.16 µM [falling, partial curve]"
same,AC50,measured here: PEO4 viability,"2.19 µM [falling, full curve]"
COc1ccc(S(=O)(=O)N2CCc3cccc(-c4ccncc4)c32)cc1,AC50,[1],"0.692 µM [falling, full curve]"
same,AC50,measured here: PEO4 viability,"0.616 µM [falling, full curve]"
CCc1cnn2c(NCc3ccc[n+]([O-])c3)cc(N3CCCC[C@H]3CCO)nc12,AC50,[1],"0.0977 µM [falling, full curve]"
same,AC50,measured here: PEO4 viability,"0.219 µM [falling, full curve]"
CCCc1cc(C(=O)N[C@H](Cc2ccc(-c3cccc(OC(F)(F)F)c3)nc2)C(=O)N[C@@H]2CCNC2)sc1C,AC50,[1],"15.5 µM [falling, single point]"
same,AC50,measured here: PEO4 viability,"24.5 µM [falling, single point]"
NC(=O)c1cnc2[nH]ccc2c1NC1C2CC3C[C@H]1CC(O)(C3)C2 (stereo partly drawn),AC50,[1],"11 µM [falling, partial curve]"
same,AC50,measured here: PEO4 viability,"6.92 µM [falling, partial curve, poor fit]"
O=C(CCCCCCC(=O)N/N=C/c1ccc(N(c2ccccc2)c2ccccc2)cc1)NO,AC50,[1],"15.5 µM [falling, single point]"
same,AC50,measured here: PEO4 viability,"13.8 µM [falling, partial curve]"
O=c1c(-n2ccnn2)c[nH]n1-c1cc(N2CCOCC2)ncn1,AC50,[1],"27.5 µM [falling, single point]"
same,AC50,measured here: PEO4 viability,"24.5 µM [falling, single point]"
CC[C@@]1(O)C(=O)OCc2c1cc1n(c2=O)Cc2c-1nc1ccccc1c2CCNC(C)C,AC50,[1],"0.0069 µM [falling, full curve]"
same,AC50,measured here: PEO4 viability,"0.0549 µM [falling, full curve]"
O=C(c1ccc(/C=C/c2n[nH]c3ccccc23)cc1)N1CCNCC1,AC50,[1],"0.0616 µM [falling, full curve, poor fit]"
same,AC50,measured here: PEO4 viability,"15.5 µM [falling, partial curve, poor fit]"
C[C@@H](Nc1ncnc2[nH]c(-c3ccc(O)cc3)cc12)c1ccccc1,AC50,[1],"19.5 µM [falling, single point]"
same,AC50,measured here: PEO4 viability,"19.5 µM [falling, partial curve]"
CCC1CCCCN1C(=O)n1ncc(C(O)(c2ccccc2)c2ccccc2)n1 (stereo not drawn),AC50,[1],"24.5 µM [falling, single point]"
same,AC50,measured here: PEO4 viability,"13.8 µM [falling, partial curve]"
CC(C)(C)c1cc(C(C)(C)C)c(NC(=O)c2c[nH]c3ccccc3c2=O)cc1O,AC50,[1],"17.4 µM [falling, single point]"
same,AC50,measured here: PEO4 viability,"24.5 µM [falling, single point]"
Cc1nc(NC(=O)N2CCC[C@H]2C(N)=O)sc1-c1ccnc(C(C)(C)C(F)(F)F)c1,AC50,[1],"12.3 µM [falling, partial curve] and 13.8 µM [falling, partial curve]"
same,AC50,measured here: PEO4 viability,"12.3 µM [falling, partial curve, poor fit] and 6.92 µM [falling, partial curve]"
CC[C@@]1(O)C(=O)OCc2c1cc1n(c2=O)Cc2c-1nc1cc(F)c(C)c3c1c2[C@@H](N)CC3,AC50,[1],"0.0098 µM [falling, full curve]"
same,AC50,measured here: PEO4 viability,"0.0309 µM [falling, full curve]"
CCOC(=O)CCNc1cc(N2CCc3ccccc3CC2)nc(-c2ccccn2)n1,AC50,[1],"13.8 µM [falling, partial curve]"
same,AC50,measured here: PEO4 viability,"5.49 µM [falling, partial curve]"
CCCCC(=O)OCC(=O)[C@]1(O)Cc2c(O)c3c(c(O)c2[C@@H](O[C@H]2C[C@H](NC(=O)C(F)(F)F)[C@H](O)[C@H](C)O2)C1)C(=O)c1c(OC)cccc1C3=O,AC50,[1],"0.347 µM [falling, full curve]"
same,AC50,measured here: PEO4 viability,"2.19 µM [falling, full curve]"
Nc1cccc(S(=O)(=O)N2CCCN(S(=O)(=O)c3ccc4c(c3)OCCO4)CC2)c1,AC50,[1],"27.5 µM [falling, partial curve, poor fit]"
same,AC50,measured here: PEO4 viability,"8.71 µM [falling, partial curve, poor fit]"
CCCCNc1ncc2c(-c3ccc(F)cc3)nn(CC3CCC(N)CC3)c2n1 (stereo not drawn),AC50,[1],"6.01 µM [falling, partial curve]"
same,AC50,measured here: PEO4 viability,"6.01 µM [falling, partial curve, poor fit]"
Cc1cc(O[C@@H](CCC(F)(F)F)c2ccc(C(=O)NCCC(=O)O)cc2)cc(C)c1-c1ccc(C(C)(C)C)cc1,AC50,[1],"17.4 µM [falling, single point]"
same,AC50,measured here: PEO4 viability,"21.9 µM [falling, partial curve]"
O=C(Nc1ccc2[nH]nc(-c3ccncc3)c2c1)[C@@H]1CCN(CC(=O)N2CCN(c3ccc(-c4ncccn4)cc3)CC2)C1,AC50,[1],"0.195 µM [falling, full curve]"
same,AC50,measured here: PEO4 viability,"0.0309 µM [falling, full curve]"
CN1CCN(C2CCN(C(=O)Nc3cc(Oc4ccc(NC(=O)C5(C(=O)Nc6ccc(F)cc6)CC5)c(F)c4)ccn3)CC2)CC1,AC50,[1],"19.5 µM [falling, single point]"
same,AC50,measured here: PEO4 viability,"15.5 µM [falling, single point]"
Nc1nccc2c1ncn2[C@@H]1C=C(CO)[C@@H](O)[C@H]1O,AC50,[1],"2.19 µM [falling, full curve]"
same,AC50,measured here: PEO4 viability,"0.616 µM [falling, partial curve]"
C=CC(=O)Nc1cccc(C)c1Nc1ncc2cc(-c3c(Cl)c(OC)cc(OC)c3Cl)ccc2n1,AC50,[1],"6.92 µM [falling, partial curve]"
same,AC50,measured here: PEO4 viability,"8.71 µM [falling, partial curve, poor fit]"
COCCNCc1ccc(-c2cc3nccc(Oc4ccc(NC(=S)NC(=O)Cc5ccc(F)cc5)cc4F)c3s2)nc1,AC50,[1],"11 µM [falling, partial curve]"
same,AC50,measured here: PEO4 viability,"5.49 µM [falling, full curve]"
CN(C)CCOc1ccc(/C(=C(/CCCl)c2ccccc2)c2ccccc2)cc1,AC50,[1],"17.4 µM [falling, single point]"
same,AC50,measured here: PEO4 viability,"15.5 µM [falling, single point]"
COc1cc(-c2cc(-c3ccc(N4CCNCC4)cc3)cnc2C)cc(OC)c1OC,AC50,[1],"19.5 µM [falling, single point]"
same,AC50,measured here: PEO4 viability,"15.5 µM [falling, single point]"
Cc1cc(N2CCOCC2)ccc1Nc1nc(NC2CCCCC2)c2[nH]cnc2n1,AC50,[1],"15.5 µM [falling, partial curve]"
same,AC50,measured here: PEO4 viability,"11 µM [falling, partial curve]"
CO[C@@H](C)Cn1c(=O)n(C)c2cnc3ccc(-c4cncc(C(C)(C)O)c4)cc3c21,AC50,[1],"0.389 µM [falling, full curve]"
same,AC50,measured here: PEO4 viability,"0.436 µM [falling, full curve]"
CN(C)Cc1ccc(S(=O)(=O)n2ccc(/C=C/C(=O)NO)c2)cc1,AC50,[1],"17.4 µM [falling, partial curve]"
same,AC50,measured here: PEO4 viability,"15.5 µM [falling, partial curve]"
